Assay results as given in the supplement of paper PMC10338343.
± gives the standard deviation. Only a part is listed here, and it is no random draw.

Tested on: MIWI (PIWIL1) piRISC loaded with L1MC piRNA (30 nt)
Assay: pre-steady-state target cleavage rate (min^-1); MIWI and MILI are mouse PIWI proteins and EfPiwi is from a freshwater sponge; tags in brackets are library labels; higher = faster piRNA-guided slicing of the target
Settings: guide: L1MC piRNA 5'p-UAACUAAAUACUAUGCAAGCUGUAGGUCCU; auxiliary factor: 500 nM mouse GTSF1
How it was run: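 Cleave-'n-Seq reactions paired 0.1 nM transcribed, DNA-blocked target RNA library with 1 nM active affinity-purified piRISC holding one synthetic guide, plus or minus 500 nM GTSF1 partner protein, in HEPES–potassium acetate buffer at 33 °C for 0–8 or 0–960 min. After sequencing of uncleaved targets and normalisation to depth and weakly complementary targets, the pre-steady-state cleavage rate was taken from a burst-and-steady-state fit. Three trials were pooled, and k3 was capped at 0.0001 min^-1.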

Row | Sequence | pre-steady-state target cleavage rate
1 | UGGACCUACAGCUUGCAUACUAUUAAGUUA | 0.13 ± 0.012
2 | UCCUGGAUCAGCUUGCUUAGUAUUUUGUUA | 0.578 ± 0.049
3 | UCCUGCUACAGCUUGAUAGUAUUUAGUUA | 0.74 ± 0.057
4 | UGGACCUACAGCUUGCAAAGUAUUUACUUA | 0.379 ± 0.03
5 | UCCUGGAUGAGCAUGCAUAGAAUUUAGUUA | 0.0501 ± 0.012
6 | UCCAGCUACAGCUUGCAUAGUAUUUAGAAA | 0.381 ± 0.062
7 | UCCUGGUACAGCUUGCAUAGUAUUUUGUUA | 0.448 ± 0.059
8 | UCCUGGUACUGCUUGCAUAGUAUUAAGUUA | 0.186 ± 0.046
9 | UCCUCCUACAGCUUGCAUAGUAUUUACGUUA | 0.737 ± 0.031
10 | UCCUGCUACAGCUUGCAUAGCAUUUAGUUA | 0.319 ± 0.027
11 | AGGACCUACAGUUGCAUAGUAUUUAGUUA | 0.988 ± 0.07
12 | UCCUCCAUACAGCUUGCAUAGUAUUUAGUUA | 0.364 ± 0.019
13 | UCCUCCUACAGCUUGCAUAGUAUUAAGAUA | 0.255 ± 0.045
14 | UGCGACCUACAGCUUGCAUAGUAUUUAGUUA | 1.41 ± 0.057
15 | UCCUGGUACAGCUUGCAUAGUAUUAUCUUA | 0.163 ± 0.037
16 | UCCUGGAUGAGCUUGCAUAGUAUUUAGGUUA | 0.547 ± 0.048
17 | AGGACCUACAGCUUGCAUAGUAUUUAGUA | 0.795 ± 0.042
18 | UCCUGGAUCAGCUUGCAAAGUAUUUACAAA | 0.144 ± 0.025
19 | UCCUGGAACAGCUUGCUUAGUUUUUAGUUA | 0.176 ± 0.016
20 | AGGACCUACAGCUUGAAUAGUAUUUAGUUA | 1.44 ± 0.059

Row | Sequence | pre-steady-state target cleavage rate
21 | UCCUGGAUGUGCUUGCAUAGUAAUUAGAUA | 0.0139 ± 0.0055
22 | UCCUGGAUGUUCUUGCAUAGUAUUUAGUUA | 0.137 ± 0.014
23 | UCCUCCUACUCCUUGCAUAGUAUUUAGUAA | 0.39 ± 0.028
24 | AGGACCUACUCGUUGCAUAGUAUUUACAAA | 0.235 ± 0.037
25 | UCCUGGAUCAGCUUGCAUAGUAUAAUGAAA | 0.0792 ± 0.025
26 | UCCUCCUACGAGCUUGCAUAGUAUUUAGUUA | 0.638 ± 0.065
27 | UCGACGUACAGCUUGCAUAGUAUUUACAAA | 0.32 ± 0.045
28 | UCCUCCUACAGCUUGCAUAGUAUUUUGAUA | 0.295 ± 0.033
29 | UGGACCUACUGCUUGGAUAGUAUUUAGUUA | 1.65 ± 0.072
30 | UCCUGGAUGUGCUAGCAUAGUAUUUUGUUA | 0.0336 ± 0.0064
31 | UCCUGGAUGUGCUUGCUUAGUAAUUAGUUA | 0.00705 ± 0.0034
32 | AGGUCCUACAGCUUGCAUAGUAUUUAGAUA | 0.383 ± 0.053
33 | UCGACCUACAGCUAGCAUAGAAUUUAGUUA | 0.381 ± 0.029
34 | UCCUGGAUCAGCAUGCAUAGUAUAUAGUUA | 0.442 ± 0.047
35 | UCCUCCUACUGCUUGCAUACUAUUUAGUUA | 0.367 ± 0.017
36 | UCCUGGAUAAGCUUGCAUAGUAUUUAGUUA | 1.07 ± 0.049
37 | UGGACCUACAGCGUUGCAUAGUAUUUAGUUA | 1.33 ± 0.11
38 | UCGACCUAGAGCUUGCAUAGUUUUUAGUUA | 0.325 ± 0.023
39 | UCCACCUAGAGCUUGCAUAGUAUUUUGUUA | 1.27 ± 0.18
40 | UCCUGGAUCUCGUUGCAUAGUAUUUAGUAA | 0.0309 ± 0.0067
